Laboratory results reported in PubChem BioAssay AID894 (National Center for Advancing Translational Sciences (NCATS), 2007).
Several values for one entry are separate records, joined by “and”; a condition that tells them apart may be missing. Equal entries are not always repeated. Out of some 150,000 compounds screened, about 6,500 (4.3%) were called active. The inconclusive results got no clear call from the source; some entries with a clear call stand among them for comparison. Calls come from the whole dose curve; as a rule, active = well fitted inhibition curve with a large enough effect (not every such curve was filed as active); inconclusive = small, poorly fitted or top-dose-only effect, or another doubt; inactive = no such curve, though single readings can be large or run the other way. Where the call is inconclusive, the potency comes from a doubtful curve fit.

Target: 15-hydroxyprostaglandin dehydrogenase [NAD(+)] (Homo sapiens) (UniProt P15428)
Sequence of UniProt P15428 (P15428 whole entry, looked up): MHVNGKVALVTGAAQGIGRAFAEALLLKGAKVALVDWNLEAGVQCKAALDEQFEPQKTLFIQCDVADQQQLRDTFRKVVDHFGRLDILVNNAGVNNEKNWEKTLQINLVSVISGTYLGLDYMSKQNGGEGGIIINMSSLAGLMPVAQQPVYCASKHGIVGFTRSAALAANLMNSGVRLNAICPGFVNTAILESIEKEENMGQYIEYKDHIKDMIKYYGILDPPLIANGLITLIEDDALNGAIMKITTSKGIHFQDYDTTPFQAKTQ
Assay: qHTS Assay for Inhibitors of HPGD (15-Hydroxyprostaglandin Dehydrogenase)
Conditions: purified HPGD, NADH fluorescence kinetic, PGE2 substrate; activity change, negative = inhibition: stronger effect = lower value
Method in brief: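 NADH formation kinetics: reaction with 30 uM PGE2 and 1 mM NAD+ (final), 20 nM enzyme, Tris-HCl pH 8 with Tween 20, after 15 min compound preincubation at room temperature. Fluorescence change, last versus first of five reads.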
% is set by controls: 0 for no effect and ±100 for the full control effect; potency is the fitted concentration of half-maximal effect; tags give direction and shape of the fitted curve.

Potency, inconclusive:
CCc1ccc2c(c1)C1(NN=C(c3ccccc3)S1)C(=O)N2 (centres undefined) 20 µM [inhibitor, partial curve]
CCOc1cc(-c2cc(-c3ccc(OC)cc3)nc(N)c2C#N)ccc1O 31.6 µM [inhibitor, partial curve]
COC(=O)c1cc(=O)nc2sccn12 22.4 µM [inhibitor, partial curve]
COc1ccccc1-c1nc(C#N)c(N2CCC(C(N)=O)CC2)o1 35.5 µM [inhibitor, partial curve]
NC(=O)c1ccccc1N=Cc1ccccn1 35.5 µM [inhibitor, partial curve]
CC1CN(C(c2cccs2)c2sc3ncnn3c2O)CC(C)O1 (centres undefined) 25.1 µM [inhibitor, single point]
COCCn1c(=O)[nH]c(=O)c2c(C(F)(F)F)cc(-c3cccs3)nc21 28.2 µM [inhibitor, partial curve]
Cc1ccc(-c2nc3ccccc3n3c(C)nnc23)cc1 31.6 µM [inhibitor, partial curve]
CCCc1nc2sc(C(=O)OCC)c(N)c2c2c1COC(C)(C)C2 28.2 µM [inhibitor, partial curve]
CCOc1ccc2cc(C#N)c(SCC(=O)N3CCC(C)CC3)nc2c1 31.6 µM [inhibitor, single point]
C=CCNC(=O)CSc1cc([N+](=O)[O-])cc(S(=O)(=O)Cc2ccccc2)c1 35.5 µM [inhibitor, single point]
N#Cc1ccccc1NCc1ccccc1 31.6 µM [inhibitor, partial curve]
CCOC(=O)N/N=C\C=C\c1ccc2c(c1)OCO2 22.4 µM [inhibitor, partial curve, poor fit]
O=C(CCCOc1ccc(Cl)cc1Cl)NNC(=O)c1ccc(NC(=O)c2ccccc2)cc1 35.5 µM [inhibitor, partial curve]
O=C(Nc1ccc2c(c1)CCC2)C1CCN(c2c3c(nc4ncnn24)CCC3)CC1 31.6 µM [inhibitor, single point]
Cc1cc(N2CCCCC2)n2ncc(-c3ccccc3)c2n1 31.6 µM [inhibitor, partial curve]
CCn1nnc(-c2ccccc2NC(=O)c2ccc(-n3cnnn3)cc2)n1 39.8 µM [inhibitor, single point]
COc1ccc(-c2nc(C#N)c(NCCCN(C)C)o2)cc1OC 8.91 µM [inhibitor, partial curve]
CCn1c(=N)c(C(=O)NCc2cccnc2)cc2c(=O)n3cccc(C)c3nc21 22.4 µM [inhibitor, partial curve]
COc1ccccc1-c1nnc(Nc2nc3c(OC)cccc3s2)o1 31.6 µM [inhibitor, partial curve]
COC(=O)CSc1nc(N)c(C#N)c(CC(C)C)c1C#N 22.4 µM [inhibitor, single point]
CCC(CO)[n+]1c(C)cc(/C=C2\Sc3ccccc3N2Cc2ccccc2)cc1C (centres undefined) 28.2 µM [inhibitor, single point]
CCN1CCN(C(=O)CCCCCn2c(=O)[nH]c3cc(C(=O)OC)ccc3c2=O)CC1 31.6 µM [inhibitor, single point]
C=CCc1cccc2cc(C(=O)NCc3cccnc3)c(=O)oc12 28.2 µM [inhibitor, partial curve]
Nc1ccc(-c2cnc(-c3ccc(N)cc3)nc2)cc1 25.1 µM [inhibitor, partial curve]
Cc1ccc(NC(=O)CSc2nn(-c3ccc(Cl)cc3)c(=S)s2)cc1S(=O)(=O)N(C)C 31.6 µM [inhibitor, partial curve]
Cc1cccc(C2=NN(c3ccccc3)[C@H](CO)[C@H]2c2ccc(F)cc2)c1 35.5 µM [inhibitor, partial curve]
CCOC(=O)c1ccc(NC(=O)C(C)NS(=O)(=O)c2ccc(OC)cc2)cc1 (centres undefined) 25.1 µM [inhibitor, partial curve]
O=C(O)c1cccc2[nH]c(C(F)(F)F)nc12 35.5 µM [inhibitor, single point]
CCOC(=O)C(C)Oc1ccc2c(CC)cc(=O)oc2c1C (centres undefined) 25.1 µM [inhibitor, partial curve]
Clc1ccc2c(c1)C1OCCC1C(c1ccco1)N2 (centres undefined) 28.2 µM [inhibitor, partial curve]
Cn1c(=O)c(C(=O)COC(=O)c2cc(-c3ccco3)nc3ccccc23)c(N)n(Cc2ccccc2)c1=O 14.1 µM [inhibitor, partial curve] and 22.4 µM [inhibitor, partial curve]
CCN(CC)c1ccc(/C=N/NC(=S)NCc2ccccc2)c(O)c1 20 µM [inhibitor, single point]
Fc1ccc(-c2cc3nc(-c4ccccc4)cc(N4CCOCC4)n3n2)cc1 28.2 µM [inhibitor, partial curve]
Nc1cc(OC(=O)c2ccccc2Br)nn1S(=O)(=O)c1ccccc1 44.7 µM [inhibitor, partial curve]
Cc1cc2ccc(=O)oc2cc1OC[C@@H](O)C(C)(C)O 31.6 µM [inhibitor, partial curve]
CC12CCC(C(=O)N(NC(=O)c3cc(Cl)ccc3O)C1=O)C2(C)C (centres undefined) 28.2 µM [inhibitor, partial curve]
O=C(Nc1cn(-c2ccccc2)nc1-c1ccc(Cl)cc1)c1ccccc1 15.8 µM [inhibitor, partial curve]
CCOC(=O)c1ccc2nc(C)c3c(c2c1)OC(C)C3 (centres undefined) 28.2 µM [inhibitor, partial curve]
CCN1CCN(Cc2c(O)ccc3c2O/C(=C\C=C\c2ccccc2)C3=O)CC1 14.1 µM [inhibitor, partial curve]
COc1cc2c(cc1OC)-c1cc(NCc3ccccn3)nc(=O)n1CC2 17.8 µM [inhibitor, partial curve]
Cc1ccc(C(=O)Nc2ccon2)cc1S(=O)(=O)N1CCCCCC1 25.1 µM [inhibitor, partial curve, poor fit]
Cc1c(C(=S)Nc2ccccc2)cnn1-c1ccccc1 17.8 µM [inhibitor, partial curve]
COc1ccc(-c2nc3n(n2)C(=O)CC(c2ccco2)S3)cc1 (centres undefined) 25.1 µM [inhibitor, single point]
COc1cccc(-c2oc3ccccc3c(=O)c2O)c1 28.2 µM [inhibitor, partial curve]

Potency, active:
O=C(c1ccncc1)c1ccc(NS(=O)(=O)c2ccc(Br)s2)cc1 28.2 µM
C/C(=N\NC(=O)c1cc(C(C)C)[nH]n1)c1ccco1 22.4 µM
COC(=O)/C=C1\OC(c2ccccc2)=CC1=O 20 µM
N#C/C(=C\c1c[nH]c2ccccc12)c1nnc2n1CCCCC2 12.6 µM
CCCC(=O)OCCNc1cc(SCCC(=O)OC)c2nonc2c1[N+](=O)[O-] 28.2 µM
CC1CN=C(N(C(=O)Nc2ccccc2)c2ccc(F)cc2)S1 (centres undefined) 10 µM
CCCc1noc2c1/C(=N\O)CC(CC(C)SCC)C2 (centres undefined) 8.91 µM
Cc1ccc(SCCNC(=O)c2ccccc2)cc1 15.8 µM

Activity change, negative = inhibition, inactive:
CCCCn1c2c(c(=O)n(C)c1=O)C(c1ccc(OC)cc1)N1CCCCCC1=N2 (centres undefined) -11.1%
Cc1ccc(N(CC(=O)N/N=C/c2cc(C)n(-c3ccccc3)c2C)S(C)(=O)=O)c(C)c1 -6.3%
CC1CCCN(c2nc3ccccc3nc2C(C#N)S(=O)(=O)c2ccccc2)C1 (centres undefined) -8.35%
C/C(=N\NC(=S)Nc1ccc(F)cc1)C1CC1 0.019%
Cc1ccc(S(=O)(=O)N(C)Cc2cc3ccccc3[nH]c2=O)cc1 -21.9%
Cc1cc(C(=O)N/N=C2\CC(=O)CC(C)(C)C2)c(C)n1-c1ccc(F)cc1 -9.58%
O=C(CN1CCOCC1)Nc1nc2cc([N+](=O)[O-])ccc2s1 -8.3%
CCN(CC)S(=O)(=O)c1cccc(-c2nnc(SCC(=O)NCCC3=CCCCC3)n2N)c1 -2.42%
CCCCC/C=C\C/C=C\CCCCCCCCCC(=O)NC(C)C(=O)O (centres undefined) -5.2%
Cc1nnc(SCC(C)C)[nH]c1=O -11.2%
Cc1ccc(C2CC(=O)Oc3cc(C)c(Cl)cc32)cc1 (centres undefined) -21.1%
COc1cc(NS(=O)(=O)c2ccc(N=Cc3c(C)[nH]n(-c4ccccc4)c3=O)cc2)nc(OC)n1 -14.8%
CCCCOC(=O)NS(=O)(=O)c1sc(CC(C)C)cc1-c1ccc(Cn2c(CC)nc3c(C)cc(C)nc32)cc1 -11.4%
CC1=C(OC(=O)c2ccccc2)C(C)(C)C(c2ccc(Br)cc2)OC1=O (centres undefined) -13.3%
CCCCn1c(SCC(=O)c2ccc(O)c(O)c2)nc2ccsc2c1=O -4.78%
CS(=O)(=O)N1CCN(c2nc3ccccc3s2)CC1 -4.98%
